# According to ChEMBL document CHEMBL1201862, “PubChem BioAssay data set” (2004):
#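 Five concentrations, 48 hours, 96-well plates. GI50: concentration for 50% inhibition of growth.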 The source made the active and inactive calls. No stated cut-off is given here; in the data, active = GI50 up to about 1.1 µM and inactive = higher.
# Test system: NCI-H322M
# Assay: NCI-60 cell line screen, 48 h
row,Structure (SMILES),GI50
1,Oc1cc(O)c2c(c1)OC(c1ccc(O)c(O)c1)C(O)C2c1c(O)cc(O)c2c1OC(c1ccc(O)c(O)c1)C(O)C2 (stereo not given),inactive: > 100 µM
2,O=C(O)c1ccc(OCc2ccccc2)c(Cl)c1,inactive: > 100 µM
3,OC(C#Cc1ccccc1)(c1ccccc1)c1ccccc1,inactive: 24.5 µM
4,CNc1ccc(/C=C2\C=Cc3ccccc32)cc1,inactive: 28.7 µM
5,Cc1ccc(N2C(=O)/C(=C3\Sc4c(nc(C)n(C)c4=O)N3c3ccccc3)SC2=S)cc1,inactive: 57.3 µM
6,CC(C)Cn1cnc2c(NCC(C)O)nc3ccccc3c21 (stereo not given),inactive: > 100 µM
7,N#CCCN(c1ccc(-c2nnc(NC(=O)CNNC(=O)CC(=O)Nc3ccccc3)s2)cc1)S(=O)(=O)c1ccccc1,inactive: > 100 µM
8,O=c1c2cccnc2[nH]c2ccc3[nH]ncc3c12,inactive: 8.28 µM
9,CC1=NOC2(C1)C(=O)Nc1ccccc12 (stereo not given),inactive: > 100 µM
10,Cc1ccc(C)c(N2C(=O)C(=O)C(c3nc4ccccc4s3)/C(=N/N)C2=O)c1 (stereo not given),inactive: > 100 µM
11,CN(C)c1nc(N)nc(CCl)n1,inactive: 28.7 µM
12,CCOC(=O)C(C)(c1c(C)[nH]c2ccccc12)c1c(C)[nH]c2ccccc12,inactive: 19.1 µM
13,O=C(CCc1nnc2s/c(=C\c3ccc(Cl)c(Cl)c3)c(=O)n12)Nc1ccc(Cl)c(Cl)c1,inactive: 51.5 µM
14,COc1ccccc1CNC(=O)[C@H](Cc1ccc(O)cn1)NC(C)=O,inactive: > 100 µM
15,Cc1ccc(S(=O)(=O)NCCSCCSCCNS(=O)(=O)c2ccc(C)cc2)cc1,inactive: > 100 µM
16,Cc1c2ccnc(C(=O)NCCN(C)C)c2cc2c3cc(O)ccc3n(C)c12,active: 0.213 µM
17,CCn1c(=O)c2nc(SC)sc2n(-c2ccccc2)c1=S,inactive: > 100 µM
18,COc1cc2c(cc1OC)C(C#N)N(C(=O)c1ccccc1)C=C2OC(=O)c1ccccc1 (stereo not given),inactive: 24.3 µM
19,O=C(Cn1ccnc1[N+](=O)[O-])c1ccccc1,inactive: > 100 µM
20,CC(C)CC[C@H](O)[C@@H](C)[C@H]1[C@@H](OC2OC(C)C(O)C(O)C2O)C[C@H]2[C@@H]3CC=C4C[C@@H](O)CC[C@]4(C)[C@H]3[C@@H](O)C[C@]12C (stereo not given in full),inactive: 26.3 µM
21,O=c1oc2ccccc2cc1-c1nc2ccccc2c(=O)[nH]1,inactive: > 100 µM
22,COc1ccc(C2C(C#N)=C(S)N(C3OC(COC(C)=O)C(OC(C)=O)C(OC(C)=O)C3OC(C)=O)C(c3ccccc3)=C2C(C)=O)cc1 (stereo not given),inactive: > 100 µM
23,O=C1CC2C(=O)c3ccccc3CC2c2ccccc21 (stereo not given),inactive: 28 µM

row,Structure (SMILES),GI50
1,COC(=O)/C=C\n1c(C)cc(=O)[nH]c1=O,inactive: > 100 µM
2,O=C1c2ccccc2-c2nc(-c3ccccc3)cc3c2c1nc1ccccc13,inactive: 19.3 µM
3,COC(=O)C(=O)C(CC(=O)Nc1c(C)cccc1C)C(=O)OC (stereo not given),inactive: > 100 µM
4,COC(=O)CNC(=O)/C=C/[C@H](O[Si](C)(C)C(C)(C)C)[C@H](/C=C/C(=O)NCC(=O)OC)O[Si](C)(C)C(C)(C)C,inactive: > 25 µM
5,COc1ccc(C(=O)c2c(C(C(=O)c3ccc(OC)cc3)C(=O)c3ccc(OC)cc3)n(C(=O)c3ccc(OC)cc3)c3ccccc23)cc1,inactive: > 100 µM
6,O=C(NC(=O)c1cn(CCNCCO)c(=O)[nH]c1=O)OCc1ccccc1,inactive: > 100 µM
7,COc1ccc(COC(=O)NNC(=O)C2CSC(c3ccccc3)N2C(C)=O)cc1 (stereo not given),inactive: > 100 µM
8,CCc1nc(N)nc(N)c1-c1ccc([N+](C)(C)C)cc1,inactive: > 100 µM
9,COc1cc(/C=C2/SC(c3ccccc3)N(c3ccccc3Cl)C2=O)cc(OC)c1OC (stereo not given),inactive: 35.8 µM
10,CC/C=C\C/C=C\C1CC(=O)NCCCNCCCCN1 (stereo not given),inactive: > 100 µM
11,CCOC(=O)/C1=C(\C)N(Cc2ccccc2)C(=O)c2ccccc2C(=O)c2c(OC(C)=O)ccc(OC(C)=O)c21,inactive: 48.5 µM
12,NC(=O)CCC(NC(=O)Cc1ccccc1)C(=O)O (stereo not given),inactive: > 2470 µM
13,Oc1ccc2ccccc2c1CCc1c(O)ccc2ccccc12,inactive: 12.4 µM
14,COC(=O)[C@H](Cc1c[nH]c2ccccc12)NP(=O)(O)OCC1C=CC(n2cc(C)c(=O)[nH]c2=O)O1 (stereo not given in full),inactive: > 100 µM
15,CC(=O)NN(c1ccccc1)C1CCN(c2ccccc2)N1C(C)=O (stereo not given),inactive: > 10 µM
16,CSc1c(CC(=O)Nc2ccc(Cl)cc2)n(Cc2ccccc2)c2ccccc12,inactive: 22.2 µM
17,COc1ccc(CCc2nccn2C)cc1OC,inactive: > 100 µM
18,CC1(C)OCC2OC3([C@@H]4OC(C)(C)O[C@H]4CO)OC(C)(C)OC3C2O1 (stereo not given in full),inactive: > 100 µM
19,CCCCC(=O)Nc1ccc2c(C)cc(-c3ccc(-c4cc(-c5ccc(C)cc5)cc(-c5ccc(-c6cc(C)c7ccc(NC(=O)CCCC)nc7n6)cc5)n4)cc3)nc2n1,inactive: > 100 µM
20,COC[C@@H](/N=C/C(C)(C)C)C(C)C,inactive: > 100 µM
21,Clc1ccc2c(c1)[nH]c1c2nc2ccccn21,inactive: 19.6 µM
22,N#CC1CCN2N=C(c3ccccc3)SC12c1ccccc1 (stereo not given),inactive: 69.2 µM
23,CCOC1CN=C(Nc2cccc3ccccc23)S1 (stereo not given),inactive: > 10 µM

row,Structure (SMILES),GI50
1,CCCCCCCCCCCCCCCCOP(=O)([O-])OCC[N+](C)(C)C1CC(C)(C)N(O)C(C)(C)C1,inactive: > 100 µM
2,O=C1Nc2ccccc2/C1=N/NC(=S)N1CCCCCC1,inactive: 2.82 µM
3,O=c1cc(CSc2c(-c3ccccc3)c(=O)n(-c3ccccc3)c(=S)n2-c2ccccc2)[nH]c(=O)[nH]1,inactive: > 100 µM
4,NC(=O)N/N=C(/c1nc2ccc([N+](=O)[O-])cc2nc1O)C(O)c1ccco1 (stereo not given),inactive: 44.6 µM
5,CCOC(=O)/C=C1\C[C@H](NC(=O)OCc2ccccc2)C(=O)N1CC(=O)OCC,inactive: > 100 µM
6,N#CCCC(C=O)(CCC#N)CCC#N,inactive: > 100 µM
7,CC(C)(C)c1cc(CC2C(=O)c3ccccc3C2=O)cc(C(C)(C)C)c1O,inactive: 2.88 µM
8,BrCC[P+](c1ccccc1)(c1ccccc1)c1ccccc1,inactive: 18.9 µM
9,CC(=O)OCC1OC(OC(C)=O)C(Nc2ncc(-c3ccc(C)cc3)s2)C(OC(C)=O)C1OC(C)=O (stereo not given),inactive: 16.6 µM
10,C/C(=C\CO)CC/C=C(\C)CNc1ccccc1,inactive: 1.39 µM
11,O=C(Nc1ccccc1C(=O)O)C(=O)C(C(=O)c1ccccc1-c1ccccc1)C1OC(=O)c2ccccc21 (stereo not given),inactive: 14.1 µM
12,CCC(=O)C1=C(OC(C)=O)C2Cc3c(n(C)c4ccccc34)C(C1)N2C (stereo not given),inactive: > 100 µM
13,Clc1ccc(C2=NCON=C2c2ccc(Cl)cc2)cc1,inactive: 18.2 µM
14,C#CCOCn1cnc2c(N)ncnc21,inactive: > 100 µM
15,C=C[C@@H]1C[C@]2(C(=O)OC)Cc3nc4ccccc4nc3CC(C(=O)OC)=C2O1,inactive: > 100 µM
16,CCCCCCCCCCCCCCNC(=O)CCC(NC(=O)c1ccc(N(C)Cc2cnc3nc(N)nc(N)c3n2)cc1)C(=O)NCCCCCCCCCCCCCC (stereo not given),inactive: 7.1 µM
17,CN1C2(c3ccccc3)C(C(=O)c3ccccc3)=C(C(=O)c3ccccc3)C1(c1ccccc1)c1c(-c3ccccc3)sc(-c3ccccc3)c12,inactive: > 100 µM
18,COc1ccc(-c2c(C#N)c(=O)nc(SC)n2C2OCC(OC(C)=O)C(OC(C)=O)C2OC(C)=O)cc1 (stereo not given),inactive: > 100 µM
19,COc1ccc(C2(CC(C)C)CCNC2)cc1OC (stereo not given),inactive: > 100 µM
20,CN(C)CC(=O)N1CCc2c([nH]c3ccccc23)C1c1cccnc1 (stereo not given),inactive: > 100 µM
21,Cc1nc(-c2cc3c(ccc4ccccc43)oc2=O)cc2c1c(=O)oc1ccc3ccccc3c12,inactive: > 100 µM
22,COc1cc(Oc2c(C)c(Cl)c(OC)c(Cl)c2OC)c2c(c1Cl)COC2=O,inactive: 31 µM
23,O=C(Cn1ccnc1[N+](=O)[O-])NCc1ccc(F)cc1,inactive: > 100 µM

row,Structure (SMILES),GI50
1,COc1cccc2c1C(=O)c1c(O)c3c(c(O)c1C2=O)C[C@H](O)C[C@@H]3OC1CC(N)C(O)C(C)O1 (stereo not given in full),inactive: 2.48 µM
2,O=C1/C(=C/c2ccccc2)N=C(c2ccccc2)N1n1c(-c2ccccc2)nc2ccccc2c1=O,inactive: > 100 µM
3,C[C@H]1CC[C@@H]2[C@@H](C)C[C@H]3[C@@H]4C(C)(C)OC(=O)[C@]4(C)C(=O)[C@@]23C1=O,inactive: > 100 µM
4,Cc1n[nH]c(=O)n1/N=C/c1cccc(Cl)c1,inactive: > 100 µM
5,Cc1cc2c3ccccc3n(C)c2c2c1C(=O)C=CC2=O,inactive: 21.5 µM
6,COC(=O)c1c2c(cc3c1CC1(C3)Cc3ccc4c(c3C1=O)CCC4)CCC2 (stereo not given),inactive: 4.52 µM
7,O=S(=O)(N/N=C/c1c(Cl)cccc1Cl)c1ccccc1,inactive: > 100 µM
8,CN1NC(c2ccccc2)=C(C#N)C(=O)CC1c1ccc(Br)cc1 (stereo not given),inactive: 36.1 µM
9,Cc1ccc2nc3c(=O)[nH]c(=O)nc-3n(C)c2c1C,inactive: > 100 µM
10,CC1=C(C)Cc2c(O)ccc(O)c2C1,inactive: > 100 µM
11,O=C1N(c2ccccc2)C2(c3ccccc3)CC3CCCC13S2 (stereo not given),inactive: > 100 µM
12,COc1cc(CNC(=O)[C@H](Cc2ccc(O)cn2)NC(C)=O)cc(OC)c1,inactive: 94.4 µM
13,C[C@@H]1C[C@H]2[C@@H]3CCC4=CC(=O)C=C[C@]4(C)[C@@]3(Cl)[C@@H](Cl)C[C@]2(C)[C@@]1(O)C(=O)COP(=O)(O)O,inactive: > 100 µM
14,CC(C)(C)c1ccnc(/N=C2\N/C(=N\c3cc(C(C)(C)C)ccn3)c3ccccc32)c1,inactive: 18.5 µM
15,CCCCCCCCCCCCCCCCOCC(CCl)OP(=O)(O)OP(=O)(O)OCC1OC(n2ccc(N)nc2=O)C(O)C1O (stereo not given),inactive: 59.7 µM
16,Oc1cc(-c2cccc(OCc3ccccc3)c2)nc2cc3c(cc12)OCO3,active: 0.824 µM
17,CSCCCNC(=O)c1csc(-c2csc(CCNC(=O)CNC(=O)OC(C)(C)C)n2)n1,inactive: > 100 µM
18,NC(=O)NC(=O)c1cccc(NC(=O)CI)c1,active: 0.448 µM
19,COc1ccc(-c2cc(=O)c3c(O)cc(C)cc3o2)cc1OC,inactive: > 100 µM
20,CCCCCC(=O)Nc1nc(O)c2[nH]cnc2n1,inactive: > 100 µM
21,CC(=O)c1csc2c1C(=O)c1ccccc1C2=O,inactive: 1.69 µM
